Source: PubChem BioAssay AID588855 (National Center for Advancing Translational Sciences (NCATS), 2011)
Values joined by “and” are separate entries in the source; they are usually repeats but may differ in a detail not shown here. Identical values can stand only once. Among all 410,000 compounds or so, about 5,000 (1.2%) were called active. The inconclusive results got no clear call from the source; some entries with a clear call stand among them for comparison. Calls follow the shape of the dose curve; as a rule, active = well fitted inhibition curve with a large enough effect; inconclusive = small, poorly fitted or top-dose-only effect; inactive = no such curve, though single readings can be large or run the other way. Where the call is inconclusive, the potency comes from a doubtful curve fit.

Assay: qHTS for Inhibitors of TGF-b; also: nearly all actives have a fitted effect of over 65% in size
Conditions: HepG2 CAGA-GFP TGF-b/SMAD3 reporter, GFP fluorescence, 18 h, TGF-beta stimulated, 500 pg/mL final; series mostly up to 46.1 µM; activity, negative = inhibition: at the top concentration
Procedure, shortened: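 Using HEPG2 CAGA-GFP reporter cells at 1000 cells/well, we pinned test compounds, stimulated with recombinant TGF-beta (500 pg/mL final) and measured total well GFP after 18 h.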
% is scaled to controls: 0 for no effect and ±100 for the full control effect; potency is read from the fitted curve at half-maximal effect; tags tell the direction and shape of the fitted curve.

Which “activity, negative = inhibition” value does the source give for `COc1cc([N+](=O)[O-])c(C)cc1NC(=O)c1ccc(OC)c(OC)c1` here?
The value was inactive: 1.54%.

For `COCCn1c(SCC(=O)NCc2ccco2)nc2cccnc21`, which Potency is on record?
The Potency was inconclusive: 35.5 µM [inhibitor, single point].

Which “activity, negative = inhibition” value does the source give for `CC(C)Cc1nnc(NC(=O)CCC(=O)N2CCN(c3ccc(Cl)cc3)CC2)s1` here?
Its value is inactive: -5.38%.

For `CCS(=O)(=O)Nc1cc(-c2nc3cccnc3s2)ccc1C`, which “activity, negative = inhibition” value is on record?
Its value is inactive: -0.785%.

With `COc1ccc(-c2csc(N(CCCN(C)C)C(=O)c3ccccc3C)n2)cc1` as the molecule, how does the Potency read?
Its Potency is inconclusive: 35.5 µM [inhibitor, single point].

Which Potency does the source give for `Cc1ccc(C)c(Nc2nc3nonc3nc2Nc2cccc(C)c2C)c1` here?
Its Potency is active: 6.31 µM.

For `COc1cccc(N2CCN(c3c4c(nc5ncnn35)CCC4)CC2)c1`, which “activity, negative = inhibition” value is on record?
The value was inactive: -8.19%.

With `CCc1ccccc1NC(=O)C(C)n1nc(-c2ccc(C)c(C)c2)ccc1=O` (stereo unspecified) as the molecule, how does the “activity, negative = inhibition” value read?
Its value is inactive: 0%.

With `O=C(CCc1ccc(Oc2cc([N+](=O)[O-])cc([N+](=O)[O-])c2)cc1)Nc1cccc(Cl)c1` as the molecule, how does the Potency read?
The Potency was inconclusive: 35.5 µM [inhibitor, single point].

Which Potency does the source give for `COc1ccccc1N1C(=O)CC(N2CCN(c3ccc(Cl)cc3)CC2)C1=O` (stereo unspecified) here?
The Potency was inconclusive: 35.5 µM [inhibitor, single point].

Which Potency does the source give for `CCc1cccc(CC)c1-n1c(SCC(=O)N2CCCc3ccccc32)nc(O)cc1=O` here?
The Potency was inconclusive: 0.251 µM [inhibitor, full curve, poor fit].

With `c1c2c(cc3sc(N4CCCCC4)nc13)OCO2` as the molecule, how does the Potency read?
Its Potency is inconclusive: 12.6 µM [inhibitor, partial curve, poor fit].

For `COc1ccccc1N1CCN(C2CCCN(S(=O)(=O)c3ccccc3)C2)CC1` (stereo unspecified), which Potency is on record?
Its Potency is inconclusive: 17.8 µM [inhibitor, single point].

Which “activity, negative = inhibition” value does the source give for `CSc1nc(N2CCOCC2)c2c(c1C#N)CC(C)(C)OC2` here?
Its value is inactive: 0%.

For `COc1ccc(-c2csc(C(O)(c3ccccc3)C(F)(F)F)n2)cc1` (stereo unspecified), which Potency is on record?
Its Potency is inconclusive: 25.1 µM [inhibitor, single point].

For `COc1ccc(-c2[nH]ncc2-c2cnn(-c3ccccc3)c2)c(O)c1`, which Potency is on record?
The Potency was inconclusive: 12.6 µM [inhibitor, partial curve, poor fit].

For `COc1cccc(N/C(SCc2cccc([N+](=O)[O-])c2)=C(/C#N)C(=O)NCc2cccs2)c1`, which “activity, negative = inhibition” value is on record?
The value was inactive: 6.08%.

With `O=C(Nc1cccnc1)c1cc(-c2cccc(Br)c2)nc2ccccc12` as the molecule, how does the Potency read?
Its Potency is inconclusive: 25.1 µM [inhibitor, single point].

With `COc1ccc(N(C(=O)COc2ccccc2OC)S(=O)(=O)c2ccc(Cl)cc2)cc1` as the molecule, how does the Potency read?
The Potency was inconclusive: 31.6 µM [inhibitor, single point].

For `O=C(/C=C\c1cn(-c2ccccc2)nc1-c1ccccc1)Nc1nccs1`, which Potency is on record?
Its Potency is inconclusive: 22.4 µM [inhibitor, single point].

Which Potency does the source give for `COc1ccc(-c2nc3sc(CCNS(=O)(=O)c4ccc(F)c(C)c4)c(C)n3n2)cc1` here?
Its Potency is inconclusive: 35.5 µM [inhibitor, single point].

Which Potency does the source give for `O=C(O)C1Nc2c(C(F)(F)F)ccc(Cl)c2C2C=CCC12` (stereo unspecified) here?
The Potency was inconclusive: 7.94 µM [inhibitor, partial curve].

For `COc1cc(OC)cc(C(=O)N2CCN(S(=O)(=O)c3ccc(Cl)s3)CC2)c1`, which “activity, negative = inhibition” value is on record?
Its value is inactive: -5.96%.

With `CC(C)c1ccccc1OCC(O)CN(CC(O)COc1cccc2ccccc12)C(C)C` (stereo unspecified) as the molecule, how does the Potency read?
The Potency was active: 15.8 µM.

Which Potency does the source give for `CCCCc1ccc(CC(=O)Nc2cc(S(=O)(=O)N3CCOCC3)ccc2O)cc1` here?
The Potency was inconclusive: 22.4 µM [inhibitor, single point].

With `OCCNCc1cc(Br)ccc1OCc1ccccc1Cl` as the molecule, how does the Potency read?
The Potency was inconclusive: 22.4 µM [inhibitor, single point].

Which Potency does the source give for `CCN(CC)c1ccc(S(=O)(=O)N2CCOCC2)cc1NC(=O)CN1CCc2ccccc2C1` here?
Its Potency is inconclusive: 15.8 µM [inhibitor, single point].

For `CN(C)CCCNC(=O)c1cc(C(=O)c2cccc(Cl)c2Cl)c[nH]1`, which “activity, negative = inhibition” value is on record?
The value was inactive: 7.79%.

Which “activity, negative = inhibition” value does the source give for `Cc1ccccc1Cn1nc(C)c(NC(=O)C2c3ccccc3Oc3ccccc32)c1C` here?
The value was inactive: 6.7%.

For `CCOC(=O)c1c(CSc2ccc(C)cc2)oc2ccc(O)cc12`, which Potency is on record?
Its Potency is inconclusive: 17.8 µM [inhibitor, single point].

Which Potency does the source give for `Clc1ccc(CNc2cc(-c3ccccc3)nc3nncn23)cc1` here?
Its Potency is inconclusive: 35.5 µM [inhibitor, single point].

For `CC1Cc2ccccc2N1S(=O)(=O)c1cnc(Cl)c(Cl)c1` (stereo unspecified), which Potency is on record?
The Potency was inconclusive: 17.8 µM [inhibitor, single point].

With `O=C(CN1C(=O)S/C(=C\c2ccccc2)C1=O)Nc1cc([N+](=O)[O-])ccc1O` as the molecule, how does the Potency read?
Its Potency is inconclusive: 25.1 µM [inhibitor, single point].

For `COc1cc(CNC(=O)OCC(C)C)cc(OC)c1OC`, which Potency is on record?
Its Potency is inconclusive: 0.562 µM [inhibitor, full curve, poor fit].

Which Potency does the source give for `COc1ccc(S(=O)(=O)Nc2cccc(-c3ccc(N4CCCC4)nn3)c2)cc1OC` here?
Its Potency is inconclusive: 17.8 µM [inhibitor, partial curve, poor fit].

Which Potency does the source give for `COc1ccc(N2CCN(C(=O)COc3ccc4c(C)cc(=O)oc4c3)CC2)cc1` here?
Its Potency is inconclusive: 6.31 µM [inhibitor, single point].

With `Cc1ccc(S(=O)(=O)N2CCOCC2)cc1C(=O)Nc1ccc(-c2cn3ccsc3n2)cc1` as the molecule, how does the “activity, negative = inhibition” value read?
The value was inactive: -5.21%.

Which Potency does the source give for `O=C(CCN1CCCC1Cc1ccccc1)c1ccc2c(c1)OCCO2` (stereo unspecified) here?
Its Potency is active: 11.2 µM.

Which Potency does the source give for `COc1ccc(NC(=O)CCCc2nnc3n(CCC(C)C)c(=O)c4sccc4n23)cc1Cl` here?
The Potency was inconclusive: 20 µM [inhibitor, partial curve, poor fit].

For `COc1ccc(NC(=O)N(Cc2cc3ccc(OC)cc3[nH]c2=O)CC2CCCO2)cc1` (stereo unspecified), which “activity, negative = inhibition” value is on record?
The value was inactive: 5.58%.

Which Potency does the source give for `COc1ccc(/C=C/c2onc(C)c2S(=O)(=O)N2CCC(C(=O)N3CCCCC3)CC2)cc1` here?
Its Potency is inconclusive: 2.82 µM [inhibitor, full curve].

For `CN(C)c1cccc2c1c(NC(=O)Nc1ccccc1)nn2C`, which Potency is on record?
The Potency was inconclusive: 17.8 µM [inhibitor, partial curve, poor fit].

For `CC(C)(C)OC(=O)NCCCCCNC(=O)c1[nH]cnc1C(=O)Nc1ccccc1`, which Potency is on record?
The Potency was inconclusive: 35.5 µM [inhibitor, single point].

Which Potency does the source give for `O=S(=O)(Nc1cc(C(F)(F)F)ccc1N1CCOCC1)c1ccc2ccccc2c1` here?
Its Potency is inconclusive: 35.5 µM [inhibitor, single point].

For `O=C(CN1CCOCC1)NNC(=S)Nc1ccccc1`, which “activity, negative = inhibition” value is on record?
The value was inactive: -17.4%.

For `COc1ccc(C#Cc2c(-c3ccccc3)n(-c3ccccc3)c3ccc(CO)cc23)cc1`, which Potency is on record?
Its Potency is inconclusive: 35.5 µM [inhibitor, single point].

Which Potency does the source give for `O=C(Nc1ccccc1)Nc1n[nH]c2nnc(-c3ccccc3)c(-c3ccccc3)c12` here?
Its Potency is inconclusive: 35.5 µM [inhibitor, single point].

Which Potency does the source give for `CC(C)(C)S(=O)N1Cc2cc(CO)cc(-c3ccccc3)c2[C@@H]1CCO` (stereo partly specified) here?
Its Potency is inconclusive: 2.51 µM [inhibitor, full curve, poor fit].

For `O=C(NCc1ccccc1)c1cccc2c(-c3ccc(F)c(F)c3)coc12`, which Potency is on record?
Its Potency is inconclusive: 17.8 µM [inhibitor, single point].

For `C#CCNC(=O)C1=C[C@H](c2ccccc2)C[C@H](OCCCCO)O1`, which Potency is on record?
Its Potency is inconclusive: 2.82 µM [inhibitor, partial curve, poor fit].

With `Cc1ccc(Sc2c(C#N)c(-c3ccccc3)nn2C)cc1` as the molecule, how does the Potency read?
The Potency was inconclusive: 3.98 µM [inhibitor, partial curve, poor fit].

For `O=C(CS(=O)(=O)c1nc(-c2ccc(Cl)cc2)cn1-c1ccccc1)Nc1ccc(F)cc1F`, which Potency is on record?
The Potency was inconclusive: 10 µM [inhibitor, partial curve].

With `O=C(Nc1ccc([N+](=O)[O-])cc1Cl)c1ccccc1O` as the molecule, how does the Potency read?
The Potency was inconclusive: 891 nM [inhibitor, full curve, poor fit] and inconclusive: 1 µM [inhibitor, full curve, poor fit].

For `CC(C)(C)OC(=O)N1CC=C2C(C#N)=C(N)C(C#N)(C#N)C(c3cccs3)C2C1` (stereo unspecified), which Potency is on record?
Its Potency is inconclusive: 17.8 µM [inhibitor, single point].

With `CCS(=O)(=O)N1Cc2ccccc2CC1C(=O)Nc1nc2c(C)cccc2s1` (stereo unspecified) as the molecule, how does the “activity, negative = inhibition” value read?
Its value is inactive: 0%.

With `Clc1ccc(CSc2nncn2-c2ccc3c(c2)OCCO3)cc1` as the molecule, how does the Potency read?
Its Potency is inconclusive: 31.6 µM [inhibitor, single point].

For `CCN1C(=O)[C@H]2[C@@H](c3ccc(C(F)(F)F)cc3)N[C@]3(CCCN(Cc4ccc(C(F)(F)F)cc4)C3=O)[C@H]2C1=O`, which “activity, negative = inhibition” value is on record?
Its value is inactive: 5.96%.

With `Cc1cn(-c2cc(NC(=O)c3ccc(C)c(NC(=O)c4cccc(-c5cn[nH]c(=O)c5)c4)c3)cc(C(F)(F)F)c2)cn1` as the molecule, how does the “activity, negative = inhibition” value read?
Its value is inactive: -1.57%.

With `COc1ccc(/C=C/C(=O)c2ccc(NS(=O)(=O)c3ccc(C)cc3)cc2)cc1O` as the molecule, how does the Potency read?
The Potency was active: 12.6 µM.

With `CCNS(=O)(=O)c1ccc(NC(=S)N2CCc3ccccc32)cc1` as the molecule, how does the “activity, negative = inhibition” value read?
The value was inactive: 0.546%.

For `CN1CCc2c(OCC(=O)N3N=C(c4cccs4)CC3c3ccc(F)cc3)cccc2C1=O` (stereo unspecified), which Potency is on record?
Its Potency is inconclusive: 35.5 µM [inhibitor, single point].

Which “activity, negative = inhibition” value does the source give for `COc1cc(OC)cc(C(=O)NNC(=O)c2nn(C)c(=O)c3ccccc23)c1` here?
The value was inactive: 3.76%.

For `COc1ccc(S(=O)(=O)N2CCCc3ccccc32)cc1OC`, which Potency is on record?
The Potency was inconclusive: 8.91 µM [inhibitor, partial curve].

With `O=[N+]([O-])c1ccc(OCC2CC(c3ccccc3)=NO2)cc1` (stereo unspecified) as the molecule, how does the “activity, negative = inhibition” value read?
The value was inactive: 0%.

Which Potency does the source give for `CCC(C)Sc1ccc(-c2nc3ccccn3c2NCc2ccccc2)cc1OC` (stereo unspecified) here?
The Potency was active: 12.6 µM.

Which Potency does the source give for `O=c1cc(CN2CCN(S(=O)(=O)c3ccccc3)CC2)nc2sc(-c3ccccc3Cl)nn12` here?
Its Potency is inconclusive: 2.82 µM [inhibitor, single point].
